Test results: PubChem BioAssay AID1240 (Sanford-Burnham Center for Chemical Genomics, 2008)
The campaign covered roughly 50,000 compounds. About 800 (1.6%) showed an effect of 50% or more. Some of the results follow.

biological target: Bcl-2-like protein 10 (Homo sapiens) (UniProt Q9HD36); assay: Phenotype converters, Bcl-B/TR3 peptide binding displacement, primary biochemical FP (AID 1240); conditions: GST-Bcl-B / FITC-TR3 peptide fluorescence polarization; stronger effect = higher value; compound at 3.75 mg/L;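 note: 0% = Bcl-B with tracer peptide and DMSO and 100% = tracer peptide lacking Bcl-B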
UniProt Q9HD36, sequence (Q9HD36 whole entry, looked up): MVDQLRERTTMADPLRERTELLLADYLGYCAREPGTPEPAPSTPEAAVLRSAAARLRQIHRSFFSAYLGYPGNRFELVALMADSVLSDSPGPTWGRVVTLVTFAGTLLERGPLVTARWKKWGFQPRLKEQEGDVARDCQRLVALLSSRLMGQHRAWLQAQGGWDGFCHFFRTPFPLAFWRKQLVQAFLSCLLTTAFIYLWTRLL

For COc1ccc(S(=O)(=O)NCC2CCCO2)cc1C(=O)O (centres undefined), which displacement is on record?
Its displacement is 11.2%.

With O=C(Cc1ccccc1)N1N=C(c2ccc(Br)cc2)CC1(O)C(F)(F)F (centres undefined) as the compound, how does the displacement read?
Its displacement is 1.1%.

How did the displacement turn out when O=C(CC1(O)C(=O)Nc2ccccc21)c1cccc2ccccc12 (centres undefined) was run?
Its displacement is 5.6%.

With COC(=O)c1cc(C(=O)Nc2ccc(F)cc2)cc([N+](=O)[O-])c1 as the compound, how does the displacement read?
The displacement was 1.6%.

O=C(N/N=C/c1cc(O)ccc1[N+](=O)[O-])c1ccccn1 was tested. Which displacement did it give?
The displacement was 5.4%.

With O=C1NC(=O)N(c2ccccc2Cl)C(=O)/C1=C\C=C\c1ccco1 as the compound, how does the displacement read?
Its displacement is 15.6%.

How did the displacement turn out when O=C(CNC(=O)c1ccccc1)c1ccc(Cl)cc1 was run?
Its displacement is 2.5%.

How did the displacement turn out when COc1cccc(OCCOc2ccc(/C=C3/SC(=S)NC3=O)cc2OC)c1 was run?
Its displacement is 10.3%.

For Cc1cc(C(=O)NC(C)C23CC4CC(CC(C4)C2)C3)c(C)o1 (centres undefined), which displacement is on record?
The displacement was -4.9%.

For CC1=NN(C(=O)CCc2ccccc2)C(O)(c2ccncc2)C1 (centres undefined), which displacement is on record?
Its displacement is -20%.

For O=C(NCCCO)/C(=C\c1ccco1)NC(=O)c1ccco1, which displacement is on record?
Its displacement is 14.9%.

c1ccc(OCCN2CCCCC2)cc1 was tested. Which displacement did it give?
Its displacement is -11.5%.

CCc1ccc(-c2nc3cc(NC(=O)COc4ccccc4[N+](=O)[O-])ccc3o2)cc1 was tested. Which displacement did it give?
The displacement was 4.1%.

Which displacement does the source give for N#Cc1c(N)[nH]c(=S)c(C#N)c1-c1ccc(Br)cc1 here?
The displacement was 3.2%.

With Cc1ccc(C(=O)/C=C/c2cn(Cc3ccccc3)c3ccccc23)cc1 as the compound, how does the displacement read?
Its displacement is 11.9%.

For O=C(O)c1cnn2c1NC(c1cccs1)CC2C(F)(F)F (centres undefined), which displacement is on record?
Its displacement is 0%.

For CCOc1ccc(-c2nc3cc(NC(=O)c4ccc(Br)o4)ccc3o2)cc1, which displacement is on record?
The displacement was -7%.

For O=C(N/N=C/c1ccccc1O)C1CC(=O)N(c2ccc(Br)cc2)C1 (centres undefined), which displacement is on record?
The displacement was -27.4%.

O=C(c1cccc(F)c1)N1CCN(C2CCCCCC2)CC1 was tested. Which displacement did it give?
Its displacement is -13.9%.

How did the displacement turn out when Cc1ccc(-c2cc(-c3cc(C)ccc3O)[nH]n2)cc1 was run?
The displacement was -5.9%.

COc1ccc(C2=C(Nc3ccc4oc5ccccc5c4c3)c3ccccc3C2=O)cc1 was tested. Which displacement did it give?
The displacement was 14.6%.

With CC(C)c1ccc(C=Nc2ccc3[nH]c(=O)[nH]c3c2)cc1 as the compound, how does the displacement read?
The displacement was -3.8%.

How did the displacement turn out when COc1ccc(/C=C2/C(=O)NC(=O)N(c3ccc(C(C)C)cc3)C2=O)cc1 was run?
Its displacement is -114%.

How did the displacement turn out when COc1ccc(C(=O)NCCOc2ccccc2F)cc1OC was run?
The displacement was 7.6%.

Which displacement does the source give for O=C(O)CCC(=O)N1N=C(c2ccc(Br)cc2)CC1c1cccc([N+](=O)[O-])c1 (centres undefined) here?
Its displacement is 15.9%.

How did the displacement turn out when CCC/C(O)=C1\C(=O)CC(C)(C)CC1=Nc1ccc([N+](=O)[O-])cc1 was run?
The displacement was 3.2%.

CCOc1ccc(C(=O)N2CC(C)OC(C)C2)cc1OCC (centres undefined) was tested. Which displacement did it give?
The displacement was 11.4%.

Which displacement does the source give for O=C(c1ccccc1)c1coc2c1C(=O)c1ccccc1C2=O here?
The displacement was -0.4%.

For O=C(O)C1C(C(=O)Nc2ccccc2)C2C=CC1C21CC1 (centres undefined), which displacement is on record?
Its displacement is -18%.

Which displacement does the source give for Cc1nc2cc(-c3ccc(Br)cc3)[nH]n2c(=O)c1C here?
The displacement was -6.7%.

How did the displacement turn out when N#C/C(=C/c1cccc2ccccc12)c1ccc([N+](=O)[O-])cc1 was run?
The displacement was 0.8%.

Which displacement does the source give for c1cncc(CNc2cccc(-c3nc4ccccc4s3)c2)c1 here?
Its displacement is 8.7%.

For O=C(NC(=S)NNc1ccccc1)c1cc2ccccc2oc1=O, which displacement is on record?
Its displacement is -3.6%.

With Cc1cc(-n2cc(I)c(=O)[nH]c2=O)nc(-c2ccccc2)n1 as the compound, how does the displacement read?
The displacement was -50%.

How did the displacement turn out when Cc1cc(OCC(=O)Nc2cc([N+](=O)[O-])ccc2Cl)cc(C)c1Cl was run?
The displacement was -0.5%.

How did the displacement turn out when COCCNC(=O)C(=O)NCCc1ccccc1 was run?
Its displacement is 16.4%.

For COC(=O)c1cc(C(=O)NCc2ccc(OC)cc2)cc([N+](=O)[O-])c1, which displacement is on record?
The displacement was 12.9%.

For COc1ccc(C(C)NC(=O)c2ccc(C(C)(C)C)cc2)cc1 (centres undefined), which displacement is on record?
The displacement was -4.4%.

COc1ccc(N(CC(=O)Nc2cccc(Br)c2)S(=O)(=O)c2ccc(C)cc2)cc1 was tested. Which displacement did it give?
The displacement was 5%.

CCOC(=O)CNC(=O)c1cc([N+](=O)[O-])ccc1Cl was tested. Which displacement did it give?
Its displacement is 14.5%.

O=C(Nc1ccc2c(c1)oc1ccccc12)c1cc2ccccc2o1 was tested. Which displacement did it give?
Its displacement is 2.4%.

For COc1ccc(S(=O)(=O)Nc2ccc([N+](=O)[O-])cc2)cc1, which displacement is on record?
The displacement was 0.5%.

For CCOC(=O)C1=C(c2ccccc2)NC(=O)NC1c1ccc(CC)cc1 (centres undefined), which displacement is on record?
The displacement was -12.8%.

O=C1NN(c2ccc(I)cc2)C(=O)/C1=C\c1ccc(O)cc1O was tested. Which displacement did it give?
Its displacement is 20.4%.

COc1ccc(-c2cc(C(F)(F)F)n3nc(-c4ccccc4)cc3n2)cc1 was tested. Which displacement did it give?
Its displacement is -14.9%.

COc1cccc(N2C(=O)NC(=O)C(=Cc3ccc(O)cc3)C2=O)c1 was tested. Which displacement did it give?
Its displacement is 5.3%.

How did the displacement turn out when O=S(=O)(Cc1ccc(Cl)cc1)CC(O)COCc1ccccc1 (centres undefined) was run?
Its displacement is -0.3%.

With CCCCOc1ccc(C(=O)O/N=C(/c2ccncc2)c2ccc([N+](=O)[O-])cc2)cc1 as the compound, how does the displacement read?
Its displacement is 10.5%.

How did the displacement turn out when Cc1ccc2c(c1)C(C)(c1ccccc1)CC(C)(C)N2C(=O)CN1C(=O)C2CCCCC2C1=O (centres undefined) was run?
Its displacement is 3.9%.

With COC(=O)COc1ccc(C=C2C(=O)NC(=S)NC2=O)cc1OC as the compound, how does the displacement read?
The displacement was 8.3%.

Which displacement does the source give for Cc1cc(C)n(C(=O)c2cc(F)c(F)cc2Cl)n1 here?
The displacement was 13.9%.

Which displacement does the source give for CC(=O)Oc1ccc(-c2cccc(C(=O)NC(C)(C)C)c2)cc1 here?
Its displacement is 11.7%.

CCc1ccccc1NC(=O)c1c(NC(=O)c2ccccc2Br)sc2c1CCC2 was tested. Which displacement did it give?
The displacement was -4.1%.

With Cc1ccc(C(=O)COc2cc(OCC(=O)c3ccc(C)cc3)c3c(C)cc(=O)oc3c2)cc1 as the compound, how does the displacement read?
Its displacement is 10%.

C1CCC(N2CCC(N3CCCCC3)CC2)CC1 was tested. Which displacement did it give?
Its displacement is -6.5%.

For CCCCOc1ccc(/C=C2\SC(=S)N(C(C)C(=O)O)C2=O)cc1OC (centres undefined), which displacement is on record?
The displacement was 3.8%.

With Cc1ccc(N/C(N)=N/c2nc(C(F)(F)F)cc(=O)[nH]2)cc1 as the compound, how does the displacement read?
Its displacement is 4.4%.

With COc1cc(NC(=O)COc2ccccc2C)cc([N+](=O)[O-])c1 as the compound, how does the displacement read?
Its displacement is 9%.

For COc1cc(C=C2C(=O)NC(=O)NC2=O)ccc1OS(=O)(=O)c1ccc([N+](=O)[O-])cc1, which displacement is on record?
The displacement was 10.1%.

With O=[N+]([O-])c1cccc(/C=N/N2CCN(c3ccccn3)CC2)c1 as the compound, how does the displacement read?
Its displacement is 0.1%.

Which displacement does the source give for Cc1cc(C=C2C(=O)c3ccccc3C2=O)c(C)n1-c1cccc([N+](=O)[O-])c1 here?
Its displacement is 11.8%.

How did the displacement turn out when COc1ccc(C)cc1NC(=O)c1ccc([N+](=O)[O-])c(C)c1 was run?
Its displacement is -5.8%.

How did the displacement turn out when CC(C)(C)NC(=O)/C(=C\c1cccs1)NC(=O)c1ccccc1 was run?
Its displacement is 12.7%.

For O=C(CCc1ccccc1)N1CCN(c2nc3ccc([N+](=O)[O-])cc3s2)CC1, which displacement is on record?
The displacement was 17.9%.

With Cc1cc(C)n(C(=O)c2ccc(Cl)c([N+](=O)[O-])c2)n1 as the compound, how does the displacement read?
Its displacement is 3.1%.

How did the displacement turn out when COc1ccc(/C=N/c2oc(C)c(C)c2C#N)cc1 was run?
Its displacement is 7.9%.

O=C1c2ccccc2-c2ccc(S(=O)(=O)N3CCOCC3)cc21 was tested. Which displacement did it give?
The displacement was -18%.

For O=C1ON=C(c2ccccc2)/C1=C/c1cccnc1, which displacement is on record?
Its displacement is -9.2%.

CCCOc1cccc(C2Nc3ccccc3NC3=C2C(=O)CC(C)(C)C3)c1 (centres undefined) was tested. Which displacement did it give?
The displacement was 10.8%.
